PubChem BioAssay AID256 (DTP/NCI, 2004)
Several values for one entry are separate records, joined by “and”; a condition that tells them apart may be missing. Equal entries are not always repeated. Inconclusive results and toxic doses are left out.

System: CD2F1 mice, L1210 leukemia ip, survival T/C
Experiment: NCI In Vivo Anticancer Drug Screen. Data for tumor model L1210 Leukemia (intraperitoneal) in CD2F1 (CDF1) mice
Conditions: endpoint: median survival time, schedule: Q01DX009 (ip), vehicle: saline, higher = longer survival
Experimental: The antitumor activity of compounds was measured in mice bearing transplantable tumors. Survival or tumor size were measured and the results are expressed as the measurement made in the treated group (T) divided by the measurement made in the vehicle treated control group (C). The tumor model used in this assay is L1210 Leukemia (intraperitoneal) in CD2F1 (CDF1) mice

COc1cc2c(c(OC)c1OC)-c1ccc(OC)c(=O)cc1[C@@H](N)CC2
T/C (dose: 1.5 mg/kg/injection): 116 % of control | T/C (dose: 3.0 mg/kg/injection): 121 % of control | T/C (dose: 6.0 mg/kg/injection): 154 % of control and 160 % of control | T/C (dose: 12.0 mg/kg/injection): 172 % of control and 181 % of control | T/C (dose: 24.0 mg/kg/injection): 111 % of control
